According to article PMC4336329 (PLoS ONE, 2015):
Screen size: about 310,000 compounds; about 2,200 (0.71%) showed an effect of 50% or more. The effect is printed as a negative number. This is one part of the list.

Target: human ether-à-go-go-related gene (hERG) potassium channel (human, UniProt Q12809)
Assay: primary screen, population patch clamp on CHO cells stably expressing hERG

Sequence of human ether-à-go-go-related gene (hERG) potassium channel (Q12809 whole entry, looked up): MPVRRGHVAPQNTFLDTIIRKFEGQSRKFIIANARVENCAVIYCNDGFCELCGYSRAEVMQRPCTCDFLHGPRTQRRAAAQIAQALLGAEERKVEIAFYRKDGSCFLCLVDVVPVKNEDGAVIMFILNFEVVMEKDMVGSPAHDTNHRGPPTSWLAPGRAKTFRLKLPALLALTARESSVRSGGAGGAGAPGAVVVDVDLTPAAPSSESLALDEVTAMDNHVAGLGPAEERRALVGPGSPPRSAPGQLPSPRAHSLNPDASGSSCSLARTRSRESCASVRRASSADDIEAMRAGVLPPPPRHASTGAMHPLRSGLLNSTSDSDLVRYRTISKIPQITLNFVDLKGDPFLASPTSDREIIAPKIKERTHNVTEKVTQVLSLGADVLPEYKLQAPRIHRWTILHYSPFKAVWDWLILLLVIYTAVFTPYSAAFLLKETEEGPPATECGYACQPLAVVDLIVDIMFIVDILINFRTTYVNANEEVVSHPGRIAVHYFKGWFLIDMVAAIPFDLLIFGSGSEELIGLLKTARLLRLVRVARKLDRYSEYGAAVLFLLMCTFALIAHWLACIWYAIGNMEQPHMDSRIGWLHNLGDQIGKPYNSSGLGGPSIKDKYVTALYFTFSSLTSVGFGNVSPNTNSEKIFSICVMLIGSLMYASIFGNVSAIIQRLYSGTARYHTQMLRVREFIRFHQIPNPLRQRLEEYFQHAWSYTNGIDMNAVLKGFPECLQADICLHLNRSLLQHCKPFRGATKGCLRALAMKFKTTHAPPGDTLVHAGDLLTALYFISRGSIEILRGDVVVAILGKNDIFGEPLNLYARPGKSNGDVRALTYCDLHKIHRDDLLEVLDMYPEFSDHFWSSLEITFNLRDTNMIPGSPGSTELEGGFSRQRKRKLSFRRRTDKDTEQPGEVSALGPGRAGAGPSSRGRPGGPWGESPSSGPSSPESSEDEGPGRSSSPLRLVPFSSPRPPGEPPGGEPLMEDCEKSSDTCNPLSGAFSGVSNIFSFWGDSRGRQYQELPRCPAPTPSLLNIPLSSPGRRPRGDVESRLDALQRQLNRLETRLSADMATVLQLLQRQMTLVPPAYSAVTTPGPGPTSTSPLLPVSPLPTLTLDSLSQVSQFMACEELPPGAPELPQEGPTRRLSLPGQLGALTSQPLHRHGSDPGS

SMILES | hERG current change (%, negative = inhibition) at 1uM
O=C(O)Cc1ccccc1C(=O)O | 0.403%
Cc1ccc(N=C(/N=C(\N)N[N+](=O)[O-])Nc2ccc(C)cc2)cc1 | 5.3%
COCCNC(=O)CN(Cc1ccccc1)C(=O)CCC(=O)Nc1nccs1 | 18.2%
CNc1nc(Oc2ccc(=O)n(C)n2)nc(N2CCOCC2)n1 | -2.31%
COc1ccccc1CNC(=O)CC(NS(=O)(=O)c1ccc(C)cc1)c1ccco1 (stereo not shown) | 6.67%
O=C1Nc2ccccc2/C1=C/c1ccccc1F | 16.2%
N#C/C(=C(/O)c1cccc(F)c1)c1nc2ccccc2s1 | 16.2%
CS(=O)(=O)c1ccccc1-c1nnc(NC(=O)COc2ccc(Cl)cc2)o1 | 9.74%
COc1ccc(OC)c(/C=N/NC(=O)c2nnn(-c3nonc3N)c2-c2cccs2)c1 | 12.6%
COC(=O)C(C)Sc1nnc(SC(C)C(=O)OC)s1 (stereo not shown) | 23%
Cn1c(O)c(N=NC(=O)Cn2c(C(F)(F)F)nc3ccccc32)c2ccccc21 | -0.0289%
Cc1ccc(N=Cc2c(O)c3ccccc3n(C)c2=O)cc1 | 14.6%
C=CCNC(=O)C1CC(=O)N(c2ccc(OCC(=O)N3CCCC3)cc2)C1 (stereo not shown) | 14.8%
OC(CNCc1ccc(Cl)cc1)(c1ccccc1)c1ccc(F)cc1 (stereo not shown) | 12.3%
CCOC(=O)Cc1csc(NC(=O)c2ccco2)n1 | 1.68%
COc1ccc(NC(=O)/C=C/c2ccc(OC(F)F)cc2)cn1 | 9.26%
COC(=O)c1ccc(N=NNc2ccccc2)cc1 | 8.1%
O=C1NC[C@H](c2ccccc2)N(CCc2cccc3ccccc23)C1=O | 2.78%
COc1ccc(NC(=S)NNC(=O)CCn2cc([N+](=O)[O-])cn2)cc1 | 16%
O=C(NCCN1CCOCC1)c1ccc2ccccc2c1 | 13.5%
COC(=O)C1=C(c2cc3ccccc3s2)C[C@@H]2CC[C@H]1N2C(=O)NCc1cccc2ccccc12 | 13.7%
COc1ccc(/C=N/NC(=O)CSCc2ccc([N+](=O)[O-])cc2)cc1OC | 5.43%

SMILES | hERG current change (%, negative = inhibition) at 1uM
O=C(O)/C=C/C(=O)N1CCN(c2ccc(F)cc2)CC1 | 11.2%
O=C(CCOc1ccccc1)Nc1cccc(S(=O)(=O)Nc2ccccc2Cl)c1 | -2.15%
CC1(C)CC(NS(=O)(=O)c2ccc(Cl)cc2)CC(C)(C)N1 | 14.5%
CC(C)=C1SC(N2CCN(c3cccc(C)c3)CC2)=NC1=O | -3.92%
Cc1ccc(S(=O)(=O)N2CCN(C(=O)CN3C(=O)NC4(CCCCC4)C3=O)CC2)c(C)c1 | 10.6%
COc1c2c(c(C)c3c1C(=O)OC3)O[C@@]1(C)CC[C@@]3(O)C(C)(C)OC(=O)CC[C@]3(C)[C@H]1C2 | 6.72%
CC(=O)OCC(=O)Nc1c(C)cccc1C | 11.3%
Oc1cc2c(cc1O)[C@H]1c3ccc(O)c(O)c3OC[C@@]1(O)C2 | 14.2%
Cc1ccc(O)c(N=NC2=C(O)CC(C)(C)CC2=O)c1 | 6.39%
Cn1c(SCC(=O)Nc2ccc(C(N)=O)cc2)nc2c(c1=O)SCC2 | 12.7%
Cc1ccc2c(c1)N(S(=O)(=O)c1ccc(F)cc1)C(C(C)(C)C)CO2 (stereo not shown) | 16.3%
CCOC(=O)[C@@H]1[C@H]2COc3ccccc3[C@@H]2N2C(=O)N(c3ccccc3)C(=O)[C@]12C | 5.97%
Cc1ccc(CNC(=O)[C@H](Cc2ccccc2)NC(=O)C2CCNCC2)cc1 | 5.28%
COc1cc(OC)cc(-c2cc3nc(C)c(CCC(=O)NCc4ccccc4)c(C)n3n2)c1 | -0.576%
CN(C)N1C(N)=C(C#N)C(c2ccc(Cl)cc2)C2=C1CCCC2=O (stereo not shown) | -0.808%
CSCCC(NS(=O)(=O)c1ccccc1F)C(=O)NCC(C)(C)N1CCOCC1 (stereo not shown) | -1.69%
CCOc1ccccc1CN1CCN(Cc2cn(C)nc2-c2ccccc2)CC1CCO (stereo not shown) | -21%
COc1ccc(CCNC(=O)c2cc(C(=O)c3cc(Cl)ccc3O)cn(CCc3ccc(OC)cc3)c2=O)cc1 | 7.84%
CC1CCCC(NC(=O)COC(=O)c2ccc(N(C)C)cc2)C1C (stereo not shown) | -9.23%
CC#CCN1c2ccccc2[C@]23C[C@@H](C(=O)OC)N(C(=O)C4CCC4)C2=NC(C(=O)OC)=C(C(=O)OC)[C@H]13 | 5.18%
CCc1ccc(-n2c(SCC(=O)Nc3cc(C)[nH]n3)nc3[nH]ncc3c2=O)cc1 | -7.74%
